# Assay results reported in the supplement of paper PMC10126150.
# Values marked as one replicate rest on one cluster of the flow cell; about a third of the high ones do not repeat.
# Test system: ATP
# Test: switch fluorescence ratio, 500 uM ATP over buffer (Cy3 cluster intensity, sum of 5 cycles each) (fold (ratio)); higher = stronger signal-on switching upon ATP binding; sequences stand for … in TCGTCGGCAGCGTCAGATGTGTATAAGAGACAGTTTTTTTTTTTTTTTTTTTTTTTTT…TC
# Conditions: aptamer strand: ATP DNA aptamer (quencher-CACCTGGGGGAGTATTGCGGAGGAAGG + anchor), 100 nM annealed; ATP concentration: 500 uM; one replicate
# Summary of the method: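 Switching-strand clusters labelled with Cy3 on a modified Illumina MiSeq flow-cell were annealed to 100 nM quencher-labelled ATP aptamer, imaged in selection buffer, and re-imaged after 15 min with 500 uM ATP at 22 °C. This was done over five cycles with NaOH stripping and re-annealing in between. The fluorescence ratio is summed target-cycle over summed buffer-cycle Cy3 intensity per cluster, averaged per switch-domain sequence, excluding clusters outside 100-1000 RFU.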
# 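Also: ATP exposure 15 min at 22 °C before imaging.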
row,Sequence,switch fluorescence ratio
1,CTCGAGGGTT,1.05
2,TTAATTTCGT,1.01
3,ACGTCCGGGC,1.05
4,TGTCGTGCGA,0.976
5,GAACGGAGGA,1.02
6,GGGCTACGGC,1.05
7,TCGCCTAAGT,1.01
8,AACCCGATTT,1.02
9,ACTGAGCTT,1.01
10,TTTTCAGGCA,1.01
11,TTCGGAGTAT,1.01
12,CATTACAGTA,1.13
13,TTGGCCCCTG,0.982
14,GATAAAAAAG,0.984
15,TCTTAGGATG,0.957
16,TGAGTGAGAA,0.959
17,CCGTGTAGTT,1.05
18,GTGTGCGCGA,1.01
19,TGCCGTATAC,1.24
20,TTAGTGCAT,0.957
21,ATTTAGATTG,1
22,TTCTCCGGGG,0.991
23,ACTTATTCCG,1.05
24,ACGATTATAA,0.96
25,TGCAATCTTA,1.08
26,GGTCTGTTCG,0.966

row,Sequence,switch fluorescence ratio
1,GGCATATGAA,0.964
2,TGGAGCGCAT,1.16
3,ATACGGAGGT,1
4,GAGAGCAAGA,1.52
5,TGGTATCGGG,0.978
6,CCGTTTATCT,1.05
7,AAATGATGCT,1.03
8,ATACGGGTTG,1.04
9,TTAACATATG,1.04
10,TCGTTAAGTC,1.03
11,CCTCATGCGT,3.27
12,GGCCGAGTGC,1
13,GGAAATCTCT,1.04
14,ACAGTGGTAG,0.984
15,CCTCGGTGCC,1.11
16,GTAGGGGCAC,1
17,TCCGAATGAG,1.12
18,AAGCCGCCTG,0.992
19,CCGAGTGGGA,0.963
20,TGGTGACTGG,1.18
21,GAAAAGCGTC,1
22,GATGCTGCTG,1.02
23,ACAGTTCGGA,0.941
24,ACGGGGCCC,1.02
25,CGCCTATTTA,1.02
26,CGACTTCCGG,1.02

row,Sequence,switch fluorescence ratio
1,AACACATTTC,1.06
2,GTGGTTAAGG,0.959
3,AATGGGACTG,1.26
4,ACCATGGGTC,1.05
5,TTTCGCTTAG,1.04
6,ATAGTCTATC,0.965
7,ATTTGTATTA,0.962
8,ACTTATCGCA,1.74
9,TCCTTAGTCC,1.05
10,AGGGCGATA,1.08
11,TGACACTTCC,2.58
12,GTAAACAACT,1.06
13,TAGAGTCAAT,1.05
14,TATGATTGAT,0.994
15,TCTGTAGAGG,0.988
16,CGAAAAAGCT,1.02
17,ATCATTTGCA,0.993
18,GGGCTCTTTA,1.02
19,CCGTTTGTGA,1.06
20,TGCAACGCTT,0.991
21,TATAGCGTGG,1.01
22,CATCATTTGG,0.956
23,TTCATGTTAG,1.02
24,ATTGCACGAC,1.18
